The record followed here is publication PMC4336329 (PLoS ONE, 2015).

SMILES strings stand for the structures. About 2,200 (0.71%) of roughly 310,000 compounds showed an effect of 50% or more. The effect is printed as a negative number. This is one part of the list.

Sequence of human ether-à-go-go-related gene (hERG) potassium channel (Q12809 whole entry, looked up): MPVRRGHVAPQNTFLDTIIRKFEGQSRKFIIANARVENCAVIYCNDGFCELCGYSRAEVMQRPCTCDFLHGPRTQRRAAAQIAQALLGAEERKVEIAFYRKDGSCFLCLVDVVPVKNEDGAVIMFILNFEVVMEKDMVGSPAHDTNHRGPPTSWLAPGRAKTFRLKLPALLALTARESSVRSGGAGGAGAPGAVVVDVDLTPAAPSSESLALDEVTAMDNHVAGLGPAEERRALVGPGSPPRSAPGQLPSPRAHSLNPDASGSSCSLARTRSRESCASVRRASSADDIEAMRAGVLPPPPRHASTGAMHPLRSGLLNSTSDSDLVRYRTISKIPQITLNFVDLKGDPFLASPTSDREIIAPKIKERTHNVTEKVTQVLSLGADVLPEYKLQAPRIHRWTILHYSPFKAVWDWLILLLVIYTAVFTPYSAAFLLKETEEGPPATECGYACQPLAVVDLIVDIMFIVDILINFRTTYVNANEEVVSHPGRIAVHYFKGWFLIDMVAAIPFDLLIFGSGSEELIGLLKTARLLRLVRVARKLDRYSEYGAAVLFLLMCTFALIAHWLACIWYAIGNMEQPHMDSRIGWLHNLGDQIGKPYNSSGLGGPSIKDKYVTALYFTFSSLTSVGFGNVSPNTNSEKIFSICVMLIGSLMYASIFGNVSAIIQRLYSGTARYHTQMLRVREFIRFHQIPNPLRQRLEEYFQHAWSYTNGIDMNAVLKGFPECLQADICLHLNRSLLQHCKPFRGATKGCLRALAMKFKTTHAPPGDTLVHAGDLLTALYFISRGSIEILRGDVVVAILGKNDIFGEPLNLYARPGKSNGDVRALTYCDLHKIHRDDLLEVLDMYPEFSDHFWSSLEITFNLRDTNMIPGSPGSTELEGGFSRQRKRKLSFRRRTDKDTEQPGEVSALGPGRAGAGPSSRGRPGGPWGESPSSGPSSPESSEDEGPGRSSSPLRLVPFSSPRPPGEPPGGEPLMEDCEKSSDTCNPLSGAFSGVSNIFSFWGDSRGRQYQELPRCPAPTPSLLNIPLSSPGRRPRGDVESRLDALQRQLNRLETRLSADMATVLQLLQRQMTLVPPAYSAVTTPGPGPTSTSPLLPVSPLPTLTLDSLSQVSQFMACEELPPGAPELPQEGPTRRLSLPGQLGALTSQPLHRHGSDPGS

The experiment concerns the target human ether-à-go-go-related gene (hERG) potassium channel (human, UniProt Q12809). In words: primary screen, population patch clamp on CHO cells stably expressing hERG.
With `CCOc1ccc(-c2nc3n(c(=O)c2C#N)CCCS3)cc1`, the “hERG current change (%, negative = inhibition) at 1uM” value amounted to 9.07%.

On to `O=C(c1cc2ccccc2o1)N1CCN(c2cccc(Cl)c2)CC1`, for which the “hERG current change (%, negative = inhibition) at 1uM” value was -1.24%. Under `COc1cc(NC(=O)CN2C(=O)NC(CC(C)C)C2=O)cc(OC)c1OC` (stereo not drawn) stands 6.25%; under `O=C(C1CC1c1ccccc1)N1CCOCC1` (stereo not drawn), 35%. Under `COCC(=O)Nc1ccc(Br)c(C)c1` stands 10%; under `COc1cc(OC)c(S(=O)(=O)N2CCCCC2)cc1S(=O)(=O)N1CCCCC1`, 7.92%. Next, `COc1cc(Cn2c(N)c(C(=O)NCc3ccco3)c3nc4ccccc4nc32)cc(OC)c1OC`: -11.3%. `CN1CCN(c2nc(-c3ccccc3O)nc3ccccc23)CC1`: the “hERG current change (%, negative = inhibition) at 1uM” value was determined as 11.3%.

With `Cc1ccc(S(=O)(=O)N(C)C)cc1NC(=O)CSc1nnc(C2CC2)n1C1CC1`, the “hERG current change (%, negative = inhibition) at 1uM” value is recorded as -4.46%.

With `Nc1nnnn1CC(=O)OCc1cccc(Br)c1`, the “hERG current change (%, negative = inhibition) at 1uM” value was -2.49%. Under `CCOc1cc(/C=N/N2CCN(Cc3ccccc3)CC2)ccc1O` stands -1.82%; under `COCCN=C1N[C@@H](c2ccccc2)C(C(=O)OC)=C(C)N1Cc1ccccc1`, 1.71%; under `Cc1ccc(NC(=O)COC(=O)CCC(=O)c2cccs2)cc1`, 13.4%.

With `O=C(c1ccc(Br)cc1)c1cn[nH]c1-c1ccccc1O`, the “hERG current change (%, negative = inhibition) at 1uM” value is listed as 16%. Next, `CC(=O)Nc1nc2c(C)c(Cl)ccc2s1`: 14.8%; `COc1ccc(CNS(=O)(=O)c2ccc(-c3ccc(=O)[nH]n3)o2)cc1`: 20%; `COc1c2ccc(C(=O)NCc3cc(C(F)(F)F)cc(C(F)(F)F)c3)cc2nn1C`: 16.9%.

Consider `C(=N\n1cnnc1)/c1ccccc1OCCOc1ccccc1`, for which the “hERG current change (%, negative = inhibition) at 1uM” value was 5.08%. Under `CCOc1ccc(NC(=O)N(c2ccccc2)c2ccccc2)cc1` stands 8.87%.

For `CCOc1ccc(N2CC(C(=O)N3CCCCCC3)CC2=O)cc1` (stereo not drawn), the “hERG current change (%, negative = inhibition) at 1uM” value was 11.2%. Take `Nc1ccc(C(=O)NCCCCCCNC(=O)c2ccc(N)cc2)cc1`: the “hERG current change (%, negative = inhibition) at 1uM” value was determined as 8.2%.

As to `Cc1ccc(N(C(=O)c2ccc(S(=O)(=O)N3CCCC3)cc2)C2C=CS(=O)(=O)C2)cc1` (stereo not drawn), the “hERG current change (%, negative = inhibition) at 1uM” value is given as -4.81%. Regarding `O=C(c1ccc(Cl)cc1)C1CCCN(C(=O)/C=C/c2ccccn2)C1` (stereo not drawn), the “hERG current change (%, negative = inhibition) at 1uM” value is recorded as -8.85%.

Take `CCC(C)C(=O)Nc1nnc(SCC(=O)N2C(C)CCCC2C)s1` (stereo not drawn): the “hERG current change (%, negative = inhibition) at 1uM” value is 8.39%.

As to `COC(=O)c1cccc(NC(=O)c2cnn(C)c2)c1`, the “hERG current change (%, negative = inhibition) at 1uM” value came out at 9.08%.

Regarding `COc1ccc(CCNC(=O)COc2cc(=O)n(C)c3ccccc23)cc1OC`, the “hERG current change (%, negative = inhibition) at 1uM” value was found to be 10.1%. Next, `CCn1nc(-c2ccccc2)c2nc3ccccc3nc21`: 7.53%. Under `COC(=O)c1ccc(CN2CCC(n3nccc3NC(=O)C3CCCC3)CC2)cc1` stands -26.7%; under `Cc1ccc(C(=O)CN2C(=O)c3ccccc3S2(=O)=O)cc1`, 14.6%. Under `O=C(COC(=O)CNC(=O)c1ccc(-c2ccccc2)cc1)NCc1ccco1` stands 10.5%; under `CCCCOC(=O)NC1(C)CCS(=O)(=O)C1` (stereo not drawn), 22.2%; under `C=CCn1c(COc2ccc(OC)cc2)nc2ccccc21`, -8.21%. Take `COc1ccc(/C=C(\C#N)C(=O)Nc2cc(S(=O)(=O)N3CCCCC3)ccc2N2CCCCC2)cc1`: the “hERG current change (%, negative = inhibition) at 1uM” value was 7.8%. For `O=C(c1cccc(-c2ccco2)c1)N1CCCC(N2CCN(c3ccc(F)cc3)CC2)C1` (stereo not drawn), the “hERG current change (%, negative = inhibition) at 1uM” value is -35.8%.

With `COc1ccccc1CCNC(=O)C1(C)CC1(Cl)Cl` (stereo not drawn), the “hERG current change (%, negative = inhibition) at 1uM” value came out at 17.4%.

In the case of `Cc1ccc(S(=O)(=O)C2C(=O)N(C)C3(C)CC2c2ccccc2O3)cc1C` (stereo not drawn), the “hERG current change (%, negative = inhibition) at 1uM” value was found to be 4.83%.

As for `Cc1csc(NC(=O)CSc2ccccc2F)n1`, the “hERG current change (%, negative = inhibition) at 1uM” value was found to be 9.19%. Next, `CCN(CC)S(=O)(=O)c1ccc(NC(=O)CO/N=C(\N)c2ccccc2)cc1`: 13.4%; `COc1cc(CN2CCC(C(=O)N3CCN(c4ccccc4F)CC3)CC2)cc(OC)c1OC.O=C(O)C(=O)O`: -3.91%; `CCN(CC(=O)Nc1c(F)cccc1F)C(=O)C1CCN(S(=O)(=O)c2ccc(F)cc2)CC1`: 8.96%. With `OCc1csc(=Nc2ccccc2)n1-c1ccccc1`, the “hERG current change (%, negative = inhibition) at 1uM” value is reported as 5.08%. Under `Cc1ccc(C)c(CSc2nnc([C@@H](N)C(C)C)o2)c1.Cl` stands 13.5%; under `Cc1cccc(NC(=O)c2nc[nH]c2C(=O)N[C@@H](CCCCNC(=O)OC(C)(C)C)C(=O)OC(C)(C)C)c1`, 16.4%. Under `COc1ccc(-n2c(C)nc3cc(C(=O)NCc4ccc5c(c4)OCO5)ccc32)cc1` stands 10.4%; under `CC1CCCCC12NC(=O)N(CC(=O)Nc1sc3c(c1C(N)=O)CCC3)C2=O` (stereo not drawn), 8.61%.
